Test results: PubChem BioAssay AID1688 (National Center for Advancing Translational Sciences (NCATS), 2009)
Hit rate of the full screen: of about 220,000 compounds, about 2,400 (1.1%) were called active. Not shown: some 7% with an inconclusive outcome. The call rests on the fitted dose curve; in most records, active means well fitted inhibition curve with a large enough effect; inconclusive means small, poorly fitted or top-dose-only effect, or effect the other way; inactive means no such curve, though single readings can be large or run the other way. The entries are a selection whose mix differs from that of the whole data set.

Assay: qHTS Multiplex Assay to Identify Dual Action Probes in a Cell Model of Huntington: Aggregate Formation (GFP); further: nearly all actives have a fitted effect of over 60% in size
Conditions: PC12 HttQ103-GFP aggregates, Acumen cytometry, 40 h; series mostly up to 46.1 µM; activity change, negative = inhibition: at the top concentration
In short: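 Read-out: GFP aggregate count by laser scanning cytometer (488 nm excitation, 500-530 nm emission, 1–25 µm objects >6 SD above background). Cells: PC12, inducible HTTex1-Q103-GFP, 100 nM tebufenozide; compounds titrated.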
On the % scale 0 is the no-effect control and ±100 the full control effect; potency means the concentration at half of the fitted maximal effect.

Row | Structure (SMILES) | activity change, negative = inhibition | Potency
1 | Nc1cc(-c2ccccc2)ccc1O | inactive: 2.99% [at 9.22 µM] | –
2 | CN1CCN(c2ccccc2NC(=O)Cc2cn(C)c3ccccc23)CC1 | – | active: 25.1 µM
3 | O=S(=O)(NC1CC1)c1ccc(S(=O)(=O)N2CCCC(c3nc(-c4cccnc4)no3)C2)cc1 (stereo unspecified) | – | active: 11.2 µM
4 | C[C@@H](C(=O)NCCc1c[nH]c2ccccc12)[C@@H]1C[C@@]1(C)[C@@H](NC(=O)OCc1ccccc1)c1ccccc1 | inactive: 8.73% | –
5 | CCN(CC)C(=S)SSC(=S)N(CC)CC | inactive: 1.81% | –
6 | Cc1ccc(NC2=CC(=O)C(=O)c3ccccc32)cc1 | – | active: 10 µM
7 | COC(C/C=C/[C@@H](O)COCc1ccccc1)OC | inactive: -4.79% [at 9.22 µM] | –
8 | N[C@@H](Cc1c[nH]c2ccccc12)C(=O)O | inactive: -5.43% [at 9.22 µM] | –
9 | Cn1ncc2c(NCc3ccccc3)ncnc21 | inactive: -12.4% | –
10 | CC(=C\C(=O)O)/C(=C/c1ccccc1)C(=O)O | inactive: -0.596% | –
11 | Nc1c2ccccc2nc2ccccc12 | inactive: 6.95% [at 9.22 µM] | –
12 | CC(C)c1ccc(-n2c(-c3ccccc3)c[n+]3c2CCc2ccccc2-3)cc1 | – | active: 1.58 µM
13 | COc1cccc(Nc2nc(NCC3CCCO3)c3ccccc3n2)c1 (stereo unspecified) | – | active: 10 µM
14 | COC(C[C@@H]1O[C@@H]1[C@@H](O)[C@H](C)OCc1ccccc1)OC | inactive: 31.1% [at 9.22 µM] | –
15 | COc1ccc2c(c1)c1ccccc1n2C | – | active: 12.6 µM
16 | O=C(Nc1ccc(Oc2ccccc2)cc1)C1CCN(c2c3c(nc4ncnn24)CCC3)CC1 | – | active: 8.91 µM
17 | O=C(CCN1C(=O)COc2ccccc21)NCCCN1CCN(c2ccccc2F)CC1 | – | active: 3.16 µM
18 | CN1/C(=C/C(=O)c2cccs2)Sc2ccccc21 | inactive: -5.66% | –
19 | Cn1c(NC(=O)/C=C\c2ccccc2)cc(=O)n(C)c1=O | inactive: 0.909% | –
20 | C=C(CC)C(=O)c1ccc(OCC(=O)O)c(Cl)c1Cl | inactive: 43.7% | –
21 | O=C(COc1ccc(Br)cc1CNCCc1ccccc1)NCc1ccccc1 | – | active: 12.6 µM

Row | Structure (SMILES) | activity change, negative = inhibition | Potency
22 | COC(C/C=C\[C@@H](O)COCc1ccccc1)OC | inactive: 16.2% [at 9.22 µM] | –
23 | CN1C2CCC1CC(OC(=O)c1c[nH]c3ccccc13)C2 (stereo unspecified) | inactive: -27.5% | –
24 | Cn1c(=O)oc2cc(S(=O)(=O)Nc3ccc4c(c3)OCCO4)ccc21 | – | active: 35.5 µM
25 | CC(=O)c1ccc(N/N=C(/C(N)=O)C2=NC(C)(C)Cc3ccccc32)cc1 | – | active: 11.2 µM
26 | COC(C[C@@H]1O[C@@H]1[C@H](O)COCc1ccccc1)OC | inactive: 19.8% [at 9.22 µM] | –
27 | CN1CCC(=C2c3ccccc3C=Cc3ccccc32)CC1 | inactive: 8.24% | –
28 | Cc1ccc2nc(-c3ccc(SCC(=O)Nc4nnc(C)s4)nc3)[nH]c2c1 | – | active: 15.8 µM
29 | COc1ccc(/C=C2/CCCC(C(=O)C(F)(F)F)=C2O)cc1OC | inactive: -15.4% [at 9.22 µM] | –
30 | CC(=O)n1cc([C@H]2C=C(C(=O)NCc3ccccc3)O[C@@H](OCCCCO)C2)c2ccccc21 | inactive: -9.5% [at 9.22 µM] | –
31 | CCC(=O)/C=C1\Sc2ccccc2N1CC | inactive: -1.12% | –
32 | COC(C[C@@H]1O[C@@H]1[C@@H](O)COCc1ccccc1)OC | inactive: -5.39% [at 9.22 µM] | –
33 | C=C(C)CC1N(c2cccc(OC)c2)C(=O)C2C(C(=O)O)C3C=CC21O3 (stereo unspecified) | inactive: -12.8% | –
34 | O=C1N=C(N2CCOCC2)S/C1=C/c1ccc(-c2ccccc2Cl)o1 | inactive: -3.65% | –
35 | CCOC(=O)CN1C(=O)N[C@@H](c2ccc(Br)cc2)C(C(C)=O)=C1C | inactive: -0.131% | –
36 | CC[C@]1(O)CC2CN(CCc3c([nH]c4ccccc34)[C@@](C(=O)OC)(c3cc4c(cc3OC)N(C=O)[C@H]3[C@@](O)(C(=O)OC)[C@H](OC(C)=O)[C@]5(CC)C=CCN6CC[C@]43[C@@H]65)C2)C1 (stereo partly specified) | inactive: -33% [at 9.22 µM] | –
37 | CNCCC=C1c2ccccc2CCc2ccccc21 | inactive: -4.31% | –
38 | NC(=O)c1ncn([C@@H]2O[C@H](CO)[C@@H](O)[C@H]2O)c1O | inactive: 2.24% | –
39 | O=C1CC(N2CCN(c3ccc(Cl)c(Cl)c3)CC2)C(=O)N1 (stereo unspecified) | – | active: 25.1 µM
40 | Cc1csc(Nc2ccccc2)[n+]1C | inactive: -11.3% | –
41 | CN(C)c1cccc(NC2=CC(=[N+]3CCOCC3)CC(C)(C)C2)c1 | inactive: 3.48% | –
42 | COC(C[C@H]1O[C@H]1[C@@H](O)[C@H](C)OCc1ccccc1)OC | inactive: 28.1% [at 9.22 µM] | –

Row | Structure (SMILES) | activity change, negative = inhibition | Potency
43 | C=CCc1cc(OC)ccc1OCC(O)CN1CCN(c2ccc(OC)cc2)CC1 (stereo unspecified) | inactive: -5.71% | –
44 | CCN1C(=O)/C(=C\c2nc3ccccc3c(=O)n2-c2ccccc2)c2ccccc21 | inactive: 13.7% | –
45 | CC(=O)Oc1cccc2c1C(=O)c1c(OC(C)=O)cc(C(=O)O)cc1C2=O | inactive: 13.7% | –
46 | CN(C)C(=N)N=C(N)N | inactive: 32.2% [at 20.6 µM] | –
47 | Cc1[nH]c2ccccc2c1C(=O)/C=C\c1ccccc1Cl | inactive: 30.7% | –
48 | O=C1NC(=O)/C(=C/c2ccccc2OCc2ccccc2)S1 | inactive: -4.83% | –
49 | COc1ccc2c(c1)C(=O)[C@@H](O)[C@H](c1ccc(OC)c(Br)c1)O2 | inactive: -18.7% | –
50 | O=C1S/C(=C\c2ccccc2)C(=O)N1CC(O)Cn1c2ccccc2c2ccccc21 (stereo unspecified) | inactive: 13.5% | –
51 | Cc1ccc(NS(=O)(=O)c2ccc(Cl)c(C(=O)Nc3ccccc3-c3nc4ccccc4[nH]3)c2)cc1C | – | active: 11.2 µM
52 | COC(C[C@H]1O[C@@H]1[C@H](O)COCc1ccccc1)OC | inactive: 15% [at 9.22 µM] | –
53 | Cc1cc(/C=C2/SC(=S)N(c3ccc([N+](=O)[O-])cc3)C2=O)c(C)n1-c1cccnc1 | – | active: 3.98 µM
54 | COc1ccc(Cc2nnc(N/N=C/c3ccccc3O)[nH]c2=O)cc1OC | – | active: 1.26 µM
55 | CCC(=O)N1CCc2cc(S(=O)(=O)Nc3ccc4c(c3)OCCO4)ccc21 | – | active: 7.94 µM
56 | Cc1ccccc1NCC(=O)N/N=C\c1ccc([N+](=O)[O-])s1 | – | active: 11.2 µM
57 | CCOC(=O)/C(C#N)=C/c1ccc(OC)c(OC)c1 | inactive: -0.605% | –
58 | CC(NCCC(c1ccccc1)c1ccccc1)c1ccccc1 (stereo unspecified) | inactive: -26.4% | –
59 | COc1ccc(C/C(O)=C(\C#N)c2nc3ccccc3s2)cc1 | – | active: 12.6 µM
60 | Cc1ccc(C(=O)N/C(=C/C=C/c2ccccc2)C(=O)NCc2ccco2)cc1 | inactive: -22% | –
61 | CCO/C=C1\C(=O)N(CC)c2ccccc21 | inactive: -28.8% | –
